Source: paper PMC12136788
The other results are listed elsewhere or left out.

B1: ENSG00000215021:stop:overlap|stop_codon|ENSG00000215021|stop_codon|NA|stop_codon (ssRNA)
RNA: GGGAGUUCUACAGUCCGACGAUCCUACAGAUGGUGAAUAUCUCCCUGCGAGUGUUGUCUCGACCCAAUGCUCAGGAGCUUCCUAGCAUGUACCAGCGCCUAGGGCUGGACUACGAGGAACGAGUGUUGCCGUCCAUUGUCAACCAACAGAGGAUUGAGCAUCA
B2: chr5:150657389:150657496:+|3pUTR|ENSG00000171992|unk|total|mutant (ssRNA)
RNA: GGGAGUUCUACAGUCCGACGAUCCUCUCUCUCUCUCUCACACACACACACACACACACACACACACACACACACACACACACCCGUCCGUGCCUUGGAUGAGGCGGGGCAGUGUGUAUAUGGACCCCUGGACUUGCUACCUUCCAACAGAGGAUUGAGCAUCA
B3: chr5:173956200:173956301:+|3pUTR|ENSG00000113742|unk|FALSE|unique (ssRNA)
RNA: GGGAGUUCUACAGUCCGACGAUCCCCCUUCCUCAACCUCUUCACGCUGGCAUGUCCUUUUGUAGCAGUCUGUAACUUAACUAUAGUAUAAUGAAAAGAAUGACCUAUAAUAUAGGUGUUUUGUAGAUUCUUGUGUCACUGCAACAACAGAGGAUUGAGCAUCA
B4: chr8:116854276:116854437:-|CDS|ENSG00000164754|unk|FALSE|bound_elsewhere (ssRNA)
RNA: GGGAGUUCUACAGUCCGACGAUCAGGAAGCUAAUUGUUGACAGUGUCAAAGAGUUGGAUAGCAAGACAAUUAGAGCCCAACUUAGUGAUUAUUCAGAUAUUGUUACUACUUUGGAUCUGGCACCGCCCACCAAGAAAUUGAUGCAACAGAGGAUUGAGCAUCA
B5: chr6:52500910:52501011:-|3pUTR|ENSG00000065308|msi1|FALSE|unique (ssRNA)
RNA: GGGAGUUCUACAGUCCGACGAUCUAAUAACUGCAAAUCGCAUGUUCAGCCAGCAGCCUCCUAAGCCCACCUUCCUCCCCCAUUAGAGAACACCCAUCCUAGGUGCUCUCCAGGCUGUGUCAUUGGCAGGGCUUCACAUGCAGGCAACAGAGGAUUGAGCAUCA
B6: chr21:43758806:43758907:+|3pUTR|ENSG00000160209|msi1|total|mutant (ssRNA)
RNA: GGGAGUUCUACAGUCCGACGAUCACUUUCUUAAUCCAGUUUUUCAAACUUCUCCCUGCCGACCGUAAGGAUGAAUUCCACAACCGGAUCCUUUUUAAAAUCGAUUUUAAAUUGUUGCCCCGUCCUGCCAAGGUUAUUAUGUGCCAACAGAGGAUUGAGCAUCA
B7: chr1:54043363:54043464:-|CDS|ENSG00000116209|msi1|FALSE|unique (ssRNA)
RNA: GGGAGUUCUACAGUCCGACGAUCCGCACAGAGCUUCAUAACCUCUUCAUGGACUUUUUAUCUUCAAGCCGAUGACGGAAAAAUAGUUAUAUUCCAGGUGACAACUGAGCUUCAUGGAUUCAUCUAAAUACUAACAACAGUAAACAACAGAGGAUUGAGCAUCA
B8: ENSG00000198589:be:win_601|CDS|ENSG00000198589|bound_else_gene|NA|bound_elsewhere_windowed (ssRNA)
RNA: GGGAGUUCUACAGUCCGACGAUCUAUGGUCCUGAUGCCUUUUUUAACUUUCCAGGAAAGAGUGCUGCAGCUAUUGCAUUACCUCCUAUAGCCAAAUGGCCAUACCAGAAUGGUUUUACAUUUCAUACAUGGCUUAGAAUGGAUCAACAGAGGAUUGAGCAUCA
B9: chr3:154315110:154315224:-|CDS|ENSG00000174953|unk|FALSE|unique (ssRNA)
RNA: GGGAGUUCUACAGUCCGACGAUCUCAGAGAACAAACUUGACAUCCAGGAAAAGAAGUUGAUAAAUCAAGAAAAAAAAAUGUUUAGAAUCAGGAACAGAUCAUAUAUUGACCGAGAUUCUGAGUAUCUCUUGCAAGAAAAUGAACAACAGAGGAUUGAGCAUCA
B10: chr12:24812577:24812678:-|3pUTR|ENSG00000060982|msi1|total|mutant (ssRNA)
RNA: GGGAGUUCUACAGUCCGACGAUCAUCCAAAGGAGCUUUUUCCUUAUUCUGUCAAGCAUUGAGAUCUUCUUCAGCUUUCAAUGCCGUUGCUAAAUACAAAUAAUGCUACCCGGCCGUGACUAAAUACCGCAAACACUUCAUCAGCAACAGAGGAUUGAGCAUCA
B11: chr5:139390591:139392033:-|three_prime_utr|ENSG00000228672|control|control|control (ssRNA)
RNA: GGGAGUUCUACAGUCCGACGAUCAGGGCGUGGUGUGGUGUGGUGUGUGGGUGUGUGUAUAUGUGUAUAUGCGGGCAAGCAAAUAGGGAAAGUGAGGCAUCCCUGGGCUUGUCCCCAGGAGCCGAUCAGAGGAGGUGCUGUGGCCAACAGAGGAUUGAGCAUCA
B12: chr22:39522180:39522281:+|CDS|ENSG00000128272|msi1|FALSE|bound_elsewhere (ssRNA)
RNA: GGGAGUUCUACAGUCCGACGAUCGCUUACGUUGCCAUGAUCCCUCAGUGCAUAAAGGAGGAAGACACCCCUUCAGAUAAUGAUAGUGGCAUCUGUAUGAGCCCAGAGUCCUAUCUGGGGUCUCCUCAGCACAGCCCCUCUACCCAACAGAGGAUUGAGCAUCA
B13: chr4:185586528:185586629:-|3pUTR|ENSG00000154556|msi1|total|mutant (ssRNA)
RNA: GGGAGUUCUACAGUCCGACGAUCAUCCAUAUGAUAUGUUGUACAUUUUAUGGAAAUGUAACCGAAUCUCACACAUUAUUUUACCGAAACCGAGUACAGAAGCAUCACAAGUAUUAAAGUUGGUUUCCGCAAGGAUCCGGAUUACAACAGAGGAUUGAGCAUCA
B14: chr22:29555535:29555644:-|3pUTR|ENSG00000184117|unk|FALSE|unique (ssRNA)
RNA: GGGAGUUCUACAGUCCGACGAUCUUCCUCAUCUCAAGGCCACCAGUCCCCAGUUAUCACCCUUGGAAAUCCUCUGUUUAGCUUAGUUGCACAAAAGGUAGUAUGUCCAGUGGCUAGAGGUGGGGUGGGAAGAGAGGAGGCCAGCAACAGAGGAUUGAGCAUCA
B15: chr17:57839567:57839672:-|3pUTR|ENSG00000181610|unk|total|mutant (ssRNA)
RNA: GGGAGUUCUACAGUCCGACGAUCGGGUUGUCACAAAGCUCAGUAUCAUGGUUUGACAGAAGCAGUUAUGUGAACUUUUAUGUCCGGACAUUACUAAAUAAAGAAUUCCCCCGCUGCUUAUAAAGUAAAUUUACUUUGAAUUGUCAACAGAGGAUUGAGCAUCA
B16: chr5:123575802:123575904:+|CDS|ENSG00000151292|unk|FALSE|unique (ssRNA)
RNA: GGGAGUUCUACAGUCCGACGAUCACCUGAGAACUUCUUAAUAGGACGACCAGGAAACAAAACCCAGCAAGUUAUUCACAUUAUAGAUUUUGGUUUGGCAAAGGAAUAUAUUGAUCCGGAGACAAAGAAACACAUACCAUACAGCAACAGAGGAUUGAGCAUCA
B17: chr2:227551976:227552087:+|CDS|ENSG00000173744|unk|FALSE|bound_elsewhere (ssRNA)
RNA: GGGAGUUCUACAGUCCGACGAUCUCCAUGAGCAUGCCCACAGGAUUCGGCACUCCUGCUCCCUACAGUCUUCCCACCAGCUUUAGUGGCAGCUUUCAGCAGCCUGCCUUUCCAGCCCAAGCAGCUUUCCCUCAACAGACAGCUCAACAGAGGAUUGAGCAUCA
B18: chr10:33178043:33178144:-|3pUTR|ENSG00000099250|msi1|FALSE|unique (ssRNA)
RNA: GGGAGUUCUACAGUCCGACGAUCAAAUUGGAUUGAGAAUGCCUUUUGUUUCCAGGAAAAUAUUGAUCACCAUGAAAGAAGAAUAGUUUUUUGUCCCCAGAGACAUUCAUUUAGUUGAUAUAAUCCUACCAGAAGGAAAGCACUCAACAGAGGAUUGAGCAUCA
B19: ENSG00000070961:be:win_1451|CDS|ENSG00000070961|bound_else_gene|NA|bound_elsewhere_windowed (ssRNA)
RNA: GGGAGUUCUACAGUCCGACGAUCGAAUGACAGUCGUUCAAGCUUACAUAAAUGAAAAACAUUAUAAAAAGGUUCCUGAACCAGAAGCUAUUCCACCAAAUAUUUUGUCCUAUCUUGUAACAGGAAUUUCUGUGAAUUGUGCUUCAACAGAGGAUUGAGCAUCA
B20: chr2:75053604:75053755:-|CDS|ENSG00000115353|control|control|control (ssRNA)
RNA: GGGAGUUCUACAGUCCGACGAUCCUGUGUGACUGUGCUGAUCUACUUCCUCCCCCUGCUGGUGAUUGGCUAUGCAUACACCGUAGUGGGAAUCACACUAUGGGCCAGUGAGAUCCCCGGGGACUCCUCUGACCGCUACCACGACAACAGAGGAUUGAGCAUCA
B21: chr2:24789727:24790410:-|three_prime_utr|ENSG00000184924|control|control|control (ssRNA)
RNA: GGGAGUUCUACAGUCCGACGAUCUUAAUAAGUUCAAGUGGGGAAGGUGGGAGAGCAGUAUUGUCUGGGGAUCAUUGCUCAAAUAGAAGAUUUGGUUAGACUCUCCUGUGGGGCUCAAGGAAACUCCCUUCCAGUCACUCGGGUCAACAGAGGAUUGAGCAUCA
B22: chrX:141908562:141908663:+|CDS|ENSG00000155495|unk|FALSE|unique (ssRNA)
RNA: GGGAGUUCUACAGUCCGACGAUCUCCUCGUUACGAAUUCCUGUGGGGUCCAAGAGCUCAUUCAGAAGUCAUUAAGAGGAAAGUAGUAGAGUUUUUGGCCAUGCUAAAGAAUACCGUCCCUAUUACCUUUCCAUCCUCUUACAACAACAGAGGAUUGAGCAUCA

Each binder was assayed against MSI1 full-length (mouse, UniProt Q61474 1-362) (assay: nsRBNS (natural sequence RNA bind-n-seq); RBNS binding buffer (assumed for nsRBNS): 25 mM Tris pH 7.5, 150 mM KCl, 3 mM MgCl2, 0.01% Triton X-100, 500 ug/ml BSA, 20 U/ml SUPERase-In, 4 C; UNK is unkempt and MSI1 is Musashi-1; names of the RNAs are library labels; protein concentration not given here; high values mean tight binding).
Chain of UniProt Q61474 (Q61474 whole entry): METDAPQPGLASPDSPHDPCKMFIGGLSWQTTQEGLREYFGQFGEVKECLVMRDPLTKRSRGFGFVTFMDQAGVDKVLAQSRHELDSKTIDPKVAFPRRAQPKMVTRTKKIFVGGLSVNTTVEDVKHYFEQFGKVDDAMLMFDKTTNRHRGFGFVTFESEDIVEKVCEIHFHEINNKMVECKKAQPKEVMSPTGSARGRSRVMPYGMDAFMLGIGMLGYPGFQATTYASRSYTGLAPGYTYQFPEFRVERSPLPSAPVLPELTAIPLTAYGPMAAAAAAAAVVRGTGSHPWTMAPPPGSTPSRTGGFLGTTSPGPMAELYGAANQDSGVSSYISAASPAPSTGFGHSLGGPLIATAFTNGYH

Question: Which binding signal does the source give for B1 here?
Answer: 0.292 enrichment R

Question: For B2, which binding signal is on record?
Answer: 0.943 enrichment R

Question: How did the binding signal turn out when B3 was run?
Answer: 7.35 enrichment R

Question: How did the binding signal turn out when B4 was run?
Answer: 1.07 enrichment R

Question: Which binding signal does the source give for B5 here?
Answer: 0.628 enrichment R

Question: How did the binding signal turn out when B6 was run?
Answer: 0.357 enrichment R

Question: B7 was tested. Which binding signal did it give?
Answer: 0.672 enrichment R

Question: How did the binding signal turn out when B8 was run?
Answer: 0.279 enrichment R

Question: B9 was tested. Which binding signal did it give?
Answer: 0.552 enrichment R

Question: With B10 as the binder, how does the binding signal read?
Answer: 0.203 enrichment R

Question: How did the binding signal turn out when B11 was run?
Answer: 0.676 enrichment R

Question: How did the binding signal turn out when B12 was run?
Answer: 0.532 enrichment R

Question: Which binding signal does the source give for B13 here?
Answer: 0.725 enrichment R

Question: How did the binding signal turn out when B14 was run?
Answer: 4.79 enrichment R

Question: Which binding signal does the source give for B15 here?
Answer: 0.56 enrichment R

Question: Which binding signal does the source give for B16 here?
Answer: 2.5 enrichment R

Question: How did the binding signal turn out when B17 was run?
Answer: 0.91 enrichment R

Question: B18 was tested. Which binding signal did it give?
Answer: 1.58 enrichment R

Question: B19 was tested. Which binding signal did it give?
Answer: 0.328 enrichment R

Question: Which binding signal does the source give for B20 here?
Answer: 0.588 enrichment R

Question: B21 was tested. Which binding signal did it give?
Answer: 0.626 enrichment R

Question: With B22 as the binder, how does the binding signal read?
Answer: 0.62 enrichment R
